Reference: the supplement of paper PMC6746778
Some of the results follow. Most values come without repeats; read them as rough.

Assays:
Assay in all cases: proliferation Z-score within cell line (SRB, relative to all inhibitors screened on that line); triple-negative breast cancer lines and a kinase inhibitor library; SRB is the sulforhodamine B protein stain; higher = less growth inhibition (more resistant)
Conditions in all cases: concentration: 1 µM; 4 days
Bt20 = tested on: Bt20
Bt549 = tested on: Bt549
HCC1143 = tested on: HCC1143
HCC1806 = tested on: HCC1806
HCC1937 = tested on: HCC1937
HCC38 = tested on: HCC38
HCC70 = tested on: HCC70
Hs578T = tested on: Hs578T
MDA-MB-231 = tested on: MDA-MB-231
MDA-MB-435s = tested on: MDA-MB-435s
MDA-MB-436 = tested on: MDA-MB-436
MDA-MB-453 = tested on: MDA-MB-453
MDA-MB-468 = tested on: MDA-MB-468
SKBR7 = tested on: SKBR7
SUM1315MO2 = tested on: SUM1315MO2
SUM149PT = tested on: SUM149PT
SUM159PT = tested on: SUM159PT
SUM185PE = tested on: SUM185PE
SUM229PE = tested on: SUM229PE
SUM52PE = tested on: SUM52PE
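Further: Single-dose primary screen of a 378-member kinase inhibitor library in 96-well plates, with growth read as absorbance of protein-bound SRB dye after TCA fixation.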

Row | SMILES | proliferation Z-score within cell line (Bt20) | proliferation Z-score within cell line (Bt549) | proliferation Z-score within cell line (HCC1143) | proliferation Z-score within cell line (HCC1806) | proliferation Z-score within cell line (HCC1937) | proliferation Z-score within cell line (HCC38) | proliferation Z-score within cell line (HCC70) | proliferation Z-score within cell line (Hs578T) | proliferation Z-score within cell line (MDA-MB-231) | proliferation Z-score within cell line (MDA-MB-435s) | proliferation Z-score within cell line (MDA-MB-436) | proliferation Z-score within cell line (MDA-MB-453) | proliferation Z-score within cell line (MDA-MB-468) | proliferation Z-score within cell line (SKBR7) | proliferation Z-score within cell line (SUM1315MO2) | proliferation Z-score within cell line (SUM149PT) | proliferation Z-score within cell line (SUM159PT) | proliferation Z-score within cell line (SUM185PE) | proliferation Z-score within cell line (SUM229PE) | proliferation Z-score within cell line (SUM52PE)
1 | c1cncc(CN2CCC(n3ncc4c(N5CCOCC5)nc(-c5ccc6[nH]ccc6c5)nc43)CC2)c1 | -0.323 | 0.0215 | 0.423 | 0.198 | -0.173 | 0.659 | 0.0254 | 0.192 | 0.285 | -0.319 | 0.0351 | 0.23 | -0.297 | -0.184 | -1.17 | 0.286 | 0.507 | -0.691 | -0.167 | -1.02
2 | CC[C@@H]1C(=O)N(C)c2cnc(Nc3ccc(C(=O)N[C@H]4CC[C@H](N5CCN(CC6CC6)CC5)CC4)cc3OC)nc2N1C(C)C [Volasertib (BI 6727)] | -2.35 | -2.17 | -3.45 | -2.09 | -1.47 | -4.28 | -2.29 | -1.68 | -2.52 | -1.71 | -1.55 | -1.9 | -2.39 | -2.59 | -1.93 | -2.47 | -3.66 | -1.05 | -1.01 | -1.82
3 | CN(C(Cc1ccc(OS(=O)(=O)c2cccc3cnccc23)cc1)C(=O)N1CCN(c2ccccc2)CC1)S(=O)(=O)c1cccc2cnccc12 (stereo not given) | 0.783 | 0.562 | 0.821 | 0.633 | 0.49 | 0.446 | 0.657 | 0.397 | 0.695 | 0.797 | 1.32 | 0.82 | 0.566 | 0.332 | 0.441 | 0.12 | 0.451 | 0.981 | 0.979 | 1.02
4 | O=c1cc(N2CCOCC2)oc2c(-c3cccc4c3sc3ccccc34)cccc12 | 0.656 | 0.334 | 0.567 | 0.325 | -0.307 | 0.512 | 0.572 | 0.293 | 0.158 | 0.768 | 0.499 | 1 | 0.262 | 0.428 | 0.536 | 0.876 | 0.695 | 0.898 | -0.0392 | 0.307
5 | O=C(NCCO)c1cccc(-c2cc(Nc3ccc(OC(F)(F)F)cc3)ncn2)c1 | 0.685 | 0.68 | 0.536 | 1.19 | 0.585 | 0.472 | 0.463 | 0.501 | 0.535 | 0.752 | 0.498 | 0.625 | 0.796 | 0.832 | 0.785 | 0.657 | 0.48 | 0.797 | 0.25 | 0.891
6 | Cc1ccc(NC(=O)c2cccc(C(C)(C)C#N)c2)cc1Nc1ccc2ncn(C)c(=O)c2c1 | 0.791 | 0.584 | 0.952 | 0.168 | 0.856 | 0.551 | 0.949 | 0.329 | -1.2 | -1.06 | 0.86 | 1.18 | 0.941 | 1.14 | 0.652 | 0.256 | 0.595 | 0.0584 | 0.287 | -1.03
7 | NC(=O)Nc1cc(-c2cccc(F)c2)sc1C(=O)N[C@H]1CCCNC1 | -1.87 | -2.67 | 0.502 | -2.28 | 0.143 | -2.67 | 0.246 | -2.58 | -1.97 | -2.06 | -0.434 | -1.7 | -1.37 | -1.49 | -1.86 | -2.54 | 0.339 | -0.717 | -2.5 | -1.39
8 | COc1ccc(-c2ccc3c(N4CCOC[C@@H]4C)nc(N4CCOC[C@@H]4C)nc3n2)cc1CO | -2.4 | -2.92 | -0.5 | -1.98 | -2.28 | -2.85 | -2.11 | -3.09 | -1.91 | -2.12 | -2.5 | -2.09 | -1.67 | -2.51 | -1.74 | -1.84 | -1.68 | -1.9 | -2.22 | -1.46
9 | CC[C@@H]1C(=O)N(C)c2cnc(Nc3ccc(C(=O)NC4CCN(C)CC4)cc3OC)nc2N1C1CCCC1 | -1.91 | -3.27 | -2.02 | -2.26 | -1.37 | -3.79 | -1.6 | -1.87 | -2.01 | -2.53 | -1.56 | -2.01 | -1.94 | -2.74 | -2.52 | -2.72 | -2.77 | -1.13 | -1.17 | -1.14
10 | CNC(=O)c1cc(Oc2ccc(NC(=O)Nc3ccc(Cl)c(C(F)(F)F)c3)c(F)c2)ccn1 [Regorafenib (BAY 73-4506)] | 0.816 | 0.672 | 1.06 | 1.37 | 0.473 | 0.494 | 0.451 | -0.0618 | -0.828 | -1.02 | -0.0591 | 0.393 | 0.913 | 0.817 | 0.418 | 0.899 | 0.603 | 0.615 | 1.44 | -0.312
11 | CSc1cccc(Nc2ncc3cc(-c4c(Cl)cccc4Cl)c(=O)n(C)c3n2)c1 | 0.966 | 0.678 | 1.02 | 1.8 | 0.847 | 0.618 | 0.649 | 0.504 | 0.376 | 0.464 | 0.351 | 0.576 | 1.01 | 0.739 | -0.79 | 0.344 | 0.604 | -0.33 | 1.22 | -0.874
12 | O=C(c1ccc(Nc2nccc(-c3cc4ccccc4s3)n2)cc1)N1CCC(N2CCCC2)CC1 [IKK-16 (IKK Inhibitor VII)] | 0.762 | 0.439 | 0.482 | 0.224 | 0.35 | 0.498 | 0.539 | 0.486 | 0.226 | 0.431 | 0.566 | 0.774 | 0.264 | 0.349 | 0.656 | 0.557 | 0.372 | 0.548 | 0.797 | 0.587
13 | C[C@@H](Oc1cc(-n2cnc3ccc(CN4CCN(C)CC4)cc32)sc1C(N)=O)c1ccccc1C(F)(F)F | -2.05 | -2.14 | -2.2 | -1.76 | -1.49 | -2.52 | -2.13 | -1.59 | -1.93 | -1.36 | -2.31 | -1.59 | -1.77 | -2.44 | -1.56 | -2.27 | -3.74 | -0.99 | -0.269 | -1.16
